Assay results reported in the supplement of paper PMC3334620.
The full ranking holds about 33,000 sequences; the median of “E-score (-0.5 to 0.5)” is about -0.04, and the highest 2% start at about 0.36. Some of the results follow.

target: T1, Hmlalpha2 (UniProt P0CY09); test: PBM E-score (8-mer binding enrichment) (E-score (-0.5 to 0.5)); higher = stronger / more preferred TF binding; most listed sequences are background and not binding sites; conditions: protein concentration: 200 nM; construct: GST-full length
T1 sequence: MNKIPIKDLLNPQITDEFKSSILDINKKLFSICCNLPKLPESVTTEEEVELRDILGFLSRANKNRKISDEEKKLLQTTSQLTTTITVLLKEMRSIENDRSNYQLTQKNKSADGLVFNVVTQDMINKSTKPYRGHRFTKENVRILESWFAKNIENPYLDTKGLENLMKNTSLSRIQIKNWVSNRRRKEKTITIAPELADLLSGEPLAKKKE
Method in brief: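 Detection of bound protein used fluorescent anti-GST, with scans normalised by masliner. The proteins were GST-tagged yeast transcription factors applied at about 100-200 nM to universal all-10-mer Agilent arrays made double-stranded by primer extension. Each ungapped eight-base word, pooled with its reverse complement, was scored with an E-score from the Universal PBM Analysis Suite.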

| Sequence | PBM E-score |
| --- | --- |
| CCGGGTGA | -0.251 |
| AAGCACCT | -0.0818 |
| GCATAAAA | 0.132 |
| AAGCTACA | 0.158 |
| CATCACGC | 0.0134 |
| ATGCTTAA | 0.0959 |
| GACCCTTA | -0.0738 |
| GAAACCTA | -0.115 |
| AAGATTAA | 0.145 |
| CATTCCTC | -0.0357 |
| AAATGCGT | 0.132 |
| AGCGGCCC | -0.385 |
| TCATGTAA | 0.482 |
| GAGTCTGA | -0.337 |
| CATAGACA | 0.128 |
| ATTTGTAC | 0.195 |
| ATGTTGCC | -0.0276 |
| GCGTTCAC | 0.0228 |
| CAAGCCTG | 0.0359 |
| ACTACAGT | 0.238 |
| ATAGAGGG | -0.0748 |
| ACTTCTCC | -0.253 |
| ATACCTAT | 0.0748 |
| AATGCAAG | 0.0745 |
| CGTCTCAC | -0.224 |

| Sequence | PBM E-score |
| --- | --- |
| CGAGAGAC | -0.234 |
| CAATCCGC | -0.114 |
| TGGTAAAA | 0.266 |
| ACTAAGAT | 0.139 |
| AACATCAA | 0.294 |
| GCGAGTGA | -0.0109 |
| CGTAGGTC | -0.0792 |
| AATCACGC | 0.198 |
| ATTGGGCG | -0.13 |
| CTATTTAC | 0.323 |
| ATATATTG | 0.0447 |
| GAGCTGAA | -0.217 |
| TATTGCGA | 0.0191 |
| CTGGTATA | -0.223 |
| GGCTTATA | -0.0133 |
| TCCCGCCA | -0.22 |
| ACCGAGTA | 0.045 |
| CACCCAGG | -0.162 |
| AAGCTAAG | -0.0323 |
| CCACGGAG | -0.109 |
| TCCAAGAA | -0.13 |
| CCAGTTTC | -0.269 |
| TTCTCAAA | 0.00861 |
| GGTCGTCA | -0.0493 |
| AACTACCA | -0.0255 |

| Sequence | PBM E-score |
| --- | --- |
| GCTCTGCA | -0.174 |
| AAGCTTAA | 0.041 |
| CACCACGG | -0.144 |
| CTAAACCC | -0.239 |
| ATTTTGGG | -0.178 |
| CAAACTTA | 0.183 |
| CACATACA | 0.33 |
| CTAGATCC | -0.22 |
| CCTAAACC | -0.273 |
| GCCTGTGA | -0.175 |
| ACGGTGAA | 0.0542 |
| GTCGTCAC | -0.0539 |
| ATTATTAG | 0.00734 |
| GGTCTCAA | -0.166 |
| CGACACAG | 0.168 |
| AGCATGCT | 0.151 |
| CCCAACAA | 0.123 |
| ACCGCCGG | -0.412 |
| GAATTAAA | 0.0754 |
| TAGTACTA | 0.184 |
| GTTGTTCA | 0.151 |
| CTACGTTA | 0.316 |
| AGCACTTA | 0.0175 |
| ATTAGGTC | 0.0453 |
| AACGCATA | 0.211 |

| Sequence | PBM E-score |
| --- | --- |
| CTGTGTTC | 0.304 |
| ACCGACGG | -0.0642 |
| CGCAATAG | -0.0126 |
| CGATGGCA | -0.218 |
| TCCGAAGA | -0.131 |
| CAATACCC | -0.0298 |
| AACAGTGA | -0.063 |
| GTACAGTA | 0.131 |
| CCCCCGCA | -0.167 |
| AGTCACAG | 0.00738 |
| TTACGCAA | 0.391 |
| CAGAAAGG | -0.0817 |
| GTGATAAA | 0.0295 |
| GCGTCCAA | -0.0357 |
| TAGCACAA | 0.167 |
| TGGCGAAA | 0.0356 |
| CTTCAATA | 0.173 |
| CAGGGAAG | -0.212 |
| CGGAGAAC | -0.0722 |
| TACGCTCA | 0.103 |
| GAATTTGA | -0.109 |
| GAGAATCC | -0.193 |
| TAAGACTA | 0.0176 |
| ACCTCTCC | -0.191 |
| CTTAATAC | 0.214 |

| Sequence | PBM E-score |
| --- | --- |
| CGTCTCAG | 0 |
| AAAGATCG | -0.0675 |
| AACTCGAG | 0.0347 |
| GAAGGGAA | -0.367 |
| CGAGCGTA | 0.161 |
| CATAGCTC | 0.00757 |
| ACAGTGGA | -0.0616 |
| ACGATGTA | 0.376 |
| CAGATTAC | 0.303 |
| CAGGGTCC | -0.201 |
| CGATGATA | 0.0847 |
| CCCAATAC | 0.0536 |
| ACCATAAA | 0.144 |
| ATTTACCC | 0.0345 |
| GGAGTGTA | 0.18 |
| AGAGTGCA | -0.0981 |
| GAGTGTCA | 0.0527 |
| TAGACGAA | 0.137 |
| AAGAACCC | -0.0837 |
| AGGAACGG | -0.253 |
| CATAACAG | 0.174 |
| CTTAAAGA | -0.0624 |
| AACTTGTA | 0.276 |
| CCCAAGCG | -0.19 |
| GCCCACCA | -0.273 |

| Sequence | PBM E-score |
| --- | --- |
| ATTAACAC | 0.455 |
| CTTTGGTA | -0.171 |
| TGTTACAA | 0.31 |
| CATATGAA | -0.0549 |
| GAGATCTA | -0.0485 |
| GTACTCGA | 0.0247 |
| GTCCACGA | -0.267 |
| TAGCCAGA | -0.0391 |
| AGCTAATC | -0.0679 |
| GGAGCTAC | 0.00025 |
| AGAGTCTG | -0.282 |
| ACGCTCGC | 0.0598 |
| AATTGTAA | 0.193 |
| AGCCCAGC | -0.297 |
| ACAGGGAA | 0.0611 |
| CTAGGTAA | 0.111 |
| CAGTAGCG | -0.122 |
| AACTTGTC | 0.114 |
| TAACTCGA | 0.277 |
| AAACGAGG | -0.0659 |
| ACCGCTAG | -0.194 |
| ACACGTGA | 0.318 |
| TATATTAA | 0.236 |
| ACTGCGAC | 0.00035 |
| CACCTGCC | -0.148 |

| Sequence | PBM E-score |
| --- | --- |
| AGATGTAT | 0.251 |
| ACAGAATC | -0.104 |
| AAAGGAGT | -0.0272 |
| ACCTGGTG | -0.11 |
| GGTCCAAC | -0.266 |
| AATCGCGG | -0.223 |
| GATGTACA | 0.379 |
| CGTCAGGA | -0.0605 |
| GACTGAAC | -0.0268 |
| ATCGAGGC | -0.0868 |
| CAACGATG | 0.115 |
| GATGACAC | 0.258 |
| AACTTTCG | -0.0626 |
| ACGCCCGC | -0.134 |
| AATGGATA | -0.0546 |
| GTCTGTCA | 0.0178 |
| CCCTCTGA | -0.271 |
| AGGAAAAG | -0.0101 |
| GTTCAGCA | 0.0151 |
| GTGGGCCA | -0.0919 |
| CATCGTCA | 0.056 |
| ACTGTTAA | 0.208 |
| CTCTAGAG | -0.148 |
| ACTAGAGT | -0.0286 |
| AATCTGCG | -0.0588 |

| Sequence | PBM E-score |
| --- | --- |
| AACAGTAA | 0.0289 |
| AAAAAGTA | 0.203 |
| CCCTTTAC | 0.134 |
| ACAGCTCT | -0.164 |
| ACCGCGGT | -0.0762 |
| ATATATCC | 0.0178 |
| CCCTTCCG | -0.371 |
| AGGTAGAT | 0.0792 |
| CATTAGGA | -0.0149 |
| GGTCGTAC | -0.105 |
| GGGTGGAA | -0.273 |
| GAAGACTC | -0.114 |
| TATTAAAA | 0.24 |
| GTGCTGAA | 0.0354 |
| GTCCCGAC | -0.144 |
| ACCGACGA | -0.225 |
| CTATCCTC | -0.329 |
| ATATCGGC | -0.111 |
| TACCAGTA | 0.0973 |
| GGAAGTAC | -0.0282 |
| GACGTCGC | -0.0575 |
| CATGGGCC | -0.0147 |
| CAAGGTTC | -0.162 |
| CCCAACTC | -0.174 |
| GACAAGAA | 0.0754 |

| Sequence | PBM E-score |
| --- | --- |
| AAAACCTT | -0.171 |
| AAAAGATG | 0.18 |
| CCGAGATC | -0.256 |
| CAGAACCA | -0.188 |
| GATCGTAA | 0.0511 |
| CTGCAAAA | 0.0334 |
| CGCCAGAG | -0.305 |
| ATTAGAAT | 0.117 |
| AACGCGAT | 0.26 |
| ACGCATTG | 0.172 |
| ATTACAGC | 0.141 |
| CAAGGATC | 0.0403 |
| CCCGGCAG | -0.33 |
| ATGCGTGG | -0.125 |
| ACTAGATC | 0.061 |
| GACCTCGA | -0.0695 |
| ATCTAAGG | -0.25 |
| ATCCGTGA | -0.161 |
| ACCTAACG | 0.0448 |
